Values marked as one replicate rest on one cluster of the flow cell; about a third of the high ones do not repeat.
Tested on: ATP
Assay: switch fluorescence ratio, 500 uM ATP over buffer (Cy3 cluster intensity, sum of 5 cycles each) (fold (ratio)); higher = stronger signal-on switching upon ATP binding; sequences stand for … in TCGTCGGCAGCGTCAGATGTGTATAAGAGACAGTTTTTTTTTTTTTTTTTTTTTTTTT…TC
Details: aptamer strand: ATP DNA aptamer (quencher-CACCTGGGGGAGTATTGCGGAGGAAGG + anchor), 100 nM annealed; ATP concentration: 500 uM; one replicate
Outline: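 Cy3-labelled switching-strand clusters on a modified Illumina MiSeq flow-cell were annealed to 100 nM quencher-labelled ATP aptamer, imaged in selection buffer, then imaged after 15 min with 500 uM ATP at 22 °C. Five buffer/ATP cycles ran, with NaOH stripping and re-annealing between them. The fluorescence ratio is summed target-cycle over summed buffer-cycle Cy3 intensity per cluster, averaged per switch-domain sequence. Clusters outside 100-1000 RFU were excluded.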
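Note: ATP exposure 15 min at 22 °C before imaging.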

Row | Sequence | switch fluorescence ratio
1 | GTGGTGCCAG | 0.999
2 | GTGGTTAAAT | 1
3 | GTGGTTGCAA | 0.984
4 | GTGGTTTACT | 0.993
5 | GTGTAA | 0.943
6 | GTGTAAAAGG | 1.18
7 | GTGTAAAATG | 0.972
8 | GTGTAAAGTA | 0.977
9 | GTGTAGAGGC | 1
10 | GTGTAGTCCT | 1.02
11 | GTGTCCTAGA | 1.01
12 | GTGTCCTCGA | 1.02
13 | GTGTCGATGG | 0.994
14 | GTGTCTAAAG | 1.03
15 | GTGTCTGACA | 1.01
16 | GTGTCTTCGC | 1.09
17 | GTGTCTTGTG | 1.02
18 | GTGTGACC | 0.953
19 | GTGTGCGCA | 1.01
20 | GTGTGCTTCA | 1.02
21 | GTGTGGAAG | 0.955
22 | GTGTGGAGAG | 1.01
23 | GTGTGGCATG | 0.971
24 | GTGTGGTACT | 0.955
25 | GTGTGTACGA | 1.03
26 | GTGTGTGTAG | 0.995

Row | Sequence | switch fluorescence ratio
27 | GTGTTACCTC | 0.986
28 | GTGTTACGGT | 0.962
29 | GTGTTATTTC | 0.921
30 | GTGTTGAGCA | 0.988
31 | GTGTTGGGAC | 0.951
32 | GTGTTTAAAC | 0.923
33 | GTGTTTCCCA | 1.01
34 | GTTAAAACGC | 0.978
35 | GTTAAAGGTG | 1.3
36 | GTTAACAAGG | 1.01
37 | GTTAATGTCT | 0.946
38 | GTTAATTCCG | 1.04
39 | GTTAATTTCC | 1.01
40 | GTTACAGTCG | 0.972
41 | GTTACGCATT | 1.27
42 | GTTACGCCTT | 1.11
43 | GTTACGTTTG | 1.02
44 | GTTACTATGT | 0.955
45 | GTTACTTATT | 1.02
46 | GTTAGAAGTT | 0.956
47 | GTTAGAGCTG | 1.09
48 | GTTAGATCAT | 0.969
49 | GTTAGGACGG | 0.972
50 | GTTAGGATTC | 1
51 | GTTAGGTGTT | 1.09
52 | GTTAGTATGG | 0.968

Row | Sequence | switch fluorescence ratio
53 | GTTAGTTCTT | 0.976
54 | GTTATAAATA | 1.02
55 | GTTATATCTG | 1.03
56 | GTTATCAAAT | 0.993
57 | GTTATCATCA | 0.992
58 | GTTATGCTT | 1.01
59 | GTTATTGAGA | 1.01
60 | GTTATTTCAA | 1.03
61 | GTTATTTTTA | 0.986
62 | GTTCAAGACT | 1.04
63 | GTTCAATAAC | 1.06
64 | GTTCAGAATT | 1.01
65 | GTTCATACAC | 1.05
66 | GTTCATACCG | 1.01
67 | GTTCATCATC | 1.01
68 | GTTCATTTCG | 0.985
69 | GTTCCGACTG | 1.33
70 | GTTCCTACTC | 1.01
71 | GTTCCTGATC | 1.13
72 | GTTCCTTATT | 0.974
73 | GTTCCTTCTT | 1.08
74 | GTTCGCACCT | 1.22
75 | GTTCTACACC | 1.06
76 | GTTCTAGCTA | 1.05
77 | GTTCTCTCAG | 1.01
78 | GTTCTTAAAC | 0.987

Row | Sequence | switch fluorescence ratio
79 | GTTCTTGGGT | 0.966
80 | GTTGAAAAAC | 1.02
81 | GTTGAACGTT | 0.995
82 | GTTGAATAG | 1.02
83 | GTTGAATGTA | 0.939
84 | GTTGACCGGG | 1.01
85 | GTTGACGTAC | 1.48
86 | GTTGACGTTA | 0.994
87 | GTTGAGGGGC | 0.949
88 | GTTGAGTCTA | 1.01
89 | GTTGCCCAAT | 1.11
90 | GTTGCCTCTG | 1.06
91 | GTTGCGCAGT | 1.04
92 | GTTGCGCCCG | 1.02
93 | GTTGCTAAGC | 0.949
94 | GTTGCTCAGC | 1.04
95 | GTTGCTGGAG | 1.01
96 | GTTGGACAGG | 1.02
97 | GTTGGAGACC | 1.02
98 | GTTGGAGTCG | 1.05
99 | GTTGGATTGC | 0.98
100 | GTTGGCAACG | 0.956
101 | GTTGGCTCAG | 1.03

— the supplement of paper PMC10126150
